Numbering of substitutions follows the chain as printed; changes in the protein carry UniProt numbers. The list shows a part of the results.
T1: RBFOX1 RRM (Homo sapiens, UniProt Q9NWB1 109-208)
T1 sequence: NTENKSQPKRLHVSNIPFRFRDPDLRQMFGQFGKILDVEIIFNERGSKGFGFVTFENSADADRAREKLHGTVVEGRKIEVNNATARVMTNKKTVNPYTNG

B1: UGGUGCU (DNA:RNA)
RNA: GGGAGACCGGAAUUCAGAUUGUCCUGGUGCUUUAAAUCCCGUCGUAGCCACCA
DNA 1: CAATCTGAATTCCGGTCTCCC
DNA 2: TGGTGGCTACGACGGGATT
B2: GGGCCGC (DNA:RNA)
RNA: B1 RNA with U25G, U28C, G29C, C30G, U31C
DNA 1: CAATCTGAATTCCGGTCTCCC
DNA 2: TGGTGGCTACGACGGGATT
B3: CCAUCCG (DNA:RNA)
RNA: B1 RNA with U25C, G26C, G27A, G29C, U31G
DNA 1: CAATCTGAATTCCGGTCTCCC
DNA 2: TGGTGGCTACGACGGGATT
B4: CGAGGGG (DNA:RNA)
RNA: B1 RNA with U25C, G27A, U28G, C30G, U31G
DNA 1: CAATCTGAATTCCGGTCTCCC
DNA 2: TGGTGGCTACGACGGGATT
B5: ACAUGGU (DNA:RNA)
RNA: B1 RNA with U25A, G26C, G27A, C30G
DNA 1: CAATCTGAATTCCGGTCTCCC
DNA 2: TGGTGGCTACGACGGGATT
B6: AUGAGUG (DNA:RNA)
RNA: B1 RNA with U25A, G26U, U28A, C30U, U31G
DNA 1: CAATCTGAATTCCGGTCTCCC
DNA 2: TGGTGGCTACGACGGGATT
B7: CUGACUG (DNA:RNA)
RNA: B1 RNA with U25C, G26U, U28A, G29C, C30U, U31G
DNA 1: CAATCTGAATTCCGGTCTCCC
DNA 2: TGGTGGCTACGACGGGATT
B8: CCCAGCU (DNA:RNA)
RNA: B1 RNA with U25C, G26C, G27C, U28A
DNA 1: CAATCTGAATTCCGGTCTCCC
DNA 2: TGGTGGCTACGACGGGATT
B9: CCUGGUG (DNA:RNA)
RNA: B1 RNA with U25C, G26C, G27U, U28G, C30U, U31G
DNA 1: CAATCTGAATTCCGGTCTCCC
DNA 2: TGGTGGCTACGACGGGATT
B10: GUAUGGC (DNA:RNA)
RNA: B1 RNA with U25G, G26U, G27A, C30G, U31C
DNA 1: CAATCTGAATTCCGGTCTCCC
DNA 2: TGGTGGCTACGACGGGATT
B11: GCAAAUC (DNA:RNA)
RNA: GGGAGACCGGAAUUCAGAUUGUCCGCAAAUCUUAAAUCCCGUCGUAGCCACCA
DNA 1: CAATCTGAATTCCGGTCTCCC
DNA 2: TGGTGGCTACGACGGGATT
B12: CAAAAGG (DNA:RNA)
RNA: B11 RNA with G25C, C26A, U30G, C31G
DNA 1: CAATCTGAATTCCGGTCTCCC
DNA 2: TGGTGGCTACGACGGGATT
B13: AAUUGGG (DNA:RNA)
RNA: B1 RNA with U25A, G26A, G27U, C30G, U31G
DNA 1: CAATCTGAATTCCGGTCTCCC
DNA 2: TGGTGGCTACGACGGGATT
B14: UUGCGCC (DNA:RNA)
RNA: B1 RNA with G26U, U28C, U31C
DNA 1: CAATCTGAATTCCGGTCTCCC
DNA 2: TGGTGGCTACGACGGGATT
B15: GUCUCAA (DNA:RNA)
RNA: B11 RNA with C26U, A27C, A28U, A29C, U30A, C31A
DNA 1: CAATCTGAATTCCGGTCTCCC
DNA 2: TGGTGGCTACGACGGGATT
B16: AGACUGU (DNA:RNA)
RNA: B1 RNA with U25A, G27A, U28C, G29U, C30G
DNA 1: CAATCTGAATTCCGGTCTCCC
DNA 2: TGGTGGCTACGACGGGATT
B17: AACAUAU (DNA:RNA)
RNA: B11 RNA with G25A, C26A, A27C, A29U, U30A, C31U
DNA 1: CAATCTGAATTCCGGTCTCCC
DNA 2: TGGTGGCTACGACGGGATT
B18: GACUCUA (DNA:RNA)
RNA: B11 RNA with C26A, A27C, A28U, A29C, C31A
DNA 1: CAATCTGAATTCCGGTCTCCC
DNA 2: TGGTGGCTACGACGGGATT
B19: ACAGACA (DNA:RNA)
RNA: B11 RNA with G25A, A28G, U30C, C31A
DNA 1: CAATCTGAATTCCGGTCTCCC
DNA 2: TGGTGGCTACGACGGGATT
B20: CCGGACG (DNA:RNA)
RNA: B11 RNA with G25C, A27G, A28G, U30C, C31G
DNA 1: CAATCTGAATTCCGGTCTCCC
DNA 2: TGGTGGCTACGACGGGATT

target: T1, RBFOX1 RRM; assay: EMSA; HiTS-Eq, 1 nM pool, 10 min; buffer printed only for the single-RNA assays: 10 mM Tris pH 7.5, 150 mM NaCl, 3.4 mM EDTA, 0.001% NP-40, 30 C; conditions: tags: His6 N-terminal (pET28a); label: 5' 32P
Method in brief: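 These values rest on relative association constants, computed from read-count changes of each RNA species versus the control reaction and normalised to the cognate motif. Reads came from free RNA recovered by 8% native PAGE after purified RbFox RRM (wild type or mutant) at increasing concentrations was equilibrated for 10 min in 50 µL with 1 nM of a 5′-radiolabelled pool with 7 randomized nucleotides and DNA-annealed flanks.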

Binder	binding signal
B1	0.0292 KA relative to UGCAUGU
B2	0.0163 KA relative to UGCAUGU
B3	0.00435 KA relative to UGCAUGU
B4	0.00639 KA relative to UGCAUGU
B5	0.00766 KA relative to UGCAUGU
B6	0.0209 KA relative to UGCAUGU
B7	0.0302 KA relative to UGCAUGU
B8	0.0114 KA relative to UGCAUGU
B9	0.0199 KA relative to UGCAUGU
B10	0.0131 KA relative to UGCAUGU
B11	0.00254 KA relative to UGCAUGU
B12	0.00436 KA relative to UGCAUGU
B13	0.00804 KA relative to UGCAUGU
B14	0.012 KA relative to UGCAUGU
B15	0.00772 KA relative to UGCAUGU
B16	0.0147 KA relative to UGCAUGU
B17	0.00127 KA relative to UGCAUGU
B18	0.00483 KA relative to UGCAUGU
B19	0.00018 KA relative to UGCAUGU
B20	0.00547 KA relative to UGCAUGU

Reference: PMC9911399, “Two distinct binding modes provide the RNA-binding protein RbFox with extraordinary sequence specificity”
